Source: US10889573B2, “Anthelmintic quinoline-3-carboxamide derivatives” (Bayer Animal Health GMBH, priority 2016, dated 2021)
Some entries share one result that the patent states for a list of compounds. At least one structure is not confirmed: it was looked up by name or label, or the drawing left a doubt.

Each molecule was assayed on Trichostrongylus colubriformis (assay: In vivo assay Trichostrongylus colubriformis / gerbil, worm count reduction). Details: ≤2.5 mg/kg intraperitoneally, once.

| SMILES | activity (reduction of worm count vs placebo-treated control) |
| --- | --- |
| CN(C)c1c(C(=O)N[C@H]2CCOc3ccccc32)cnc2c(-c3cc(F)cc(Cl)c3)c(F)ccc12 [Example 169] | 169, 170, % |

These molecules were tested against C. elegans Slo-1a (Caenorhabditis elegans, UniProt Q95V25) (assay: not given). Details: CHO cells expressing C. elegans Slo-1a, voltage sensitive dye.
C. elegans Slo-1a, sequence (Q95V25 whole entry): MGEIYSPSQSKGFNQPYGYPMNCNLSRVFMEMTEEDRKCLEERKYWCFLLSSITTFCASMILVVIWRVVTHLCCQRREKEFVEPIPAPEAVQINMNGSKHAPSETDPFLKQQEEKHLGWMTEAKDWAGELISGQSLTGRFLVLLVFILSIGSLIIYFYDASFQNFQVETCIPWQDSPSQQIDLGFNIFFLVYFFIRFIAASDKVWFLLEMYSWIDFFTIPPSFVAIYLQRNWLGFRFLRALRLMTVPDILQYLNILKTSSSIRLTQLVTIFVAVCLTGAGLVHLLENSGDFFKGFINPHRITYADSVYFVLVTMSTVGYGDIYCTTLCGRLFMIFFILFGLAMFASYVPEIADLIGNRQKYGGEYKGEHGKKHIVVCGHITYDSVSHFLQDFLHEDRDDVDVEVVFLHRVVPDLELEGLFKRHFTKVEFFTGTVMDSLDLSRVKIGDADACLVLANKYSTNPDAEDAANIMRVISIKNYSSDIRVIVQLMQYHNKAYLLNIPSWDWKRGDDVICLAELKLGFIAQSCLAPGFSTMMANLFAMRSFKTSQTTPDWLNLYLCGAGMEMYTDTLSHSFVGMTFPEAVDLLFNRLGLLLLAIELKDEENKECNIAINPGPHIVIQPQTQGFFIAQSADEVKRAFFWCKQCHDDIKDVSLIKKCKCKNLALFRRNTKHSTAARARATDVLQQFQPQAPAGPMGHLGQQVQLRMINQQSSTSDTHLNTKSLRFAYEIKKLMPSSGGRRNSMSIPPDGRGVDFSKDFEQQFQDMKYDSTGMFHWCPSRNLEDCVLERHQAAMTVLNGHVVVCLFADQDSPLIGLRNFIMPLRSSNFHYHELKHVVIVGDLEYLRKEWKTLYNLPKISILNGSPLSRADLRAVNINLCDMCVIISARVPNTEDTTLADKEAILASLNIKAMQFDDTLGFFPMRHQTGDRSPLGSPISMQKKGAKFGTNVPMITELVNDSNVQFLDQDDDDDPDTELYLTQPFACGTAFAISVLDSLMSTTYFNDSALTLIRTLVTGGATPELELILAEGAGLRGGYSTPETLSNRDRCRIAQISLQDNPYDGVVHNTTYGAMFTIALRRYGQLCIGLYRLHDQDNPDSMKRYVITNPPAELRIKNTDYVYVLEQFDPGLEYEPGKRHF

| SMILES | pE50 (negative decadic logarithm of EC50) |
| --- | --- |
| CN(C)c1c(C(=O)N[C@H]2CCOc3ccccc32)cnc2c(-c3cc(F)cc(Cl)c3)c(F)ccc12 [Example 169] | > 8,5 |
| O=C1CN(c2c(C(=O)N[C@H]3CCOc4ccccc43)cnc3c(-c4cccc(Cl)c4Cl)cccc23)CN1 [Example 562] | 7,5-8,5 |
| O=C1CN(c2c(C(=O)N[C@H]3CCOc4ccccc43)cnc3c(-c4cccc(OC(F)(F)F)c4)cccc23)CN1 [Example 569] | 7,5-8,5 |
| Cc1c(C(=O)N[C@H]2CCOc3ccccc32)cnc2c(-c3cccc(OC(F)(F)F)c3)cccc12 [Example 571] | 7,5-8,5 |
| Cc1c(C(=O)N[C@H]2CCOc3ccccc32)cnc2c(-c3cc(Cl)cc(Cl)c3Cl)cccc12 [Example 572] | 7,5-8,5 |
| CCc1cc(CC)cc(-c2cccc3c(N(C)C)c(C(=O)N[C@H]4CCOc5ccccc54)cnc23)c1 [Example 574] | 7,5-8,5 |
| CCc1c(C(=O)N[C@H]2CCOc3ccccc32)cnc2c(-c3cccc(Cl)c3Cl)cccc12 [Example 575] | 7,5-8,5 |
| O=C(N[C@H]1CCOc2ccccc21)c1cnc2c(-c3cc(F)cc(F)c3F)c(Cl)ccc2c1N1CCOCC1 [Example 576] | > 8,5 |
| CCc1cc(CC)c(Cl)c(-c2cccc3c(N(C)C)c(C(=O)N[C@H]4CCOc5ccccc54)cnc23)c1 [Example 582] | > 8,5 |
| CCc1cc(CC)c(Cl)c(-c2cccc3c(N4CCOCC4)c(C(=O)N[C@H]4CCOc5ccccc54)cnc23)c1 [Example 583] | > 8,5 |
| O=C(N[C@H]1CCOc2ccccc21)c1cnc2c(-c3cc(Cl)ccc3F)c(O)ccc2c1N1CCOCC1 [Example 584] | 6,5-7,5 |
| Cc1cc(-c2cccc3c(N(C)C)c(C(=O)N[C@H]4CCOc5ccccc54)cnc23)cc(C(C)(C)C)c1 [Example 586] | > 8,5 |
| CCc1cc(CC)cc(-c2cccc3c(N4CCOCC4)c(C(=O)N[C@H]4CCOc5ccccc54)cnc23)c1 [Example 588] | > 8,5 |
| Cc1cc(C#N)cc(-c2cccc3c(N4CCOCC4)c(C(=O)N[C@H]4CCOc5ccccc54)cnc23)c1 [Example 594] | > 8,5 |
| Cc1cc(C#N)cc(-c2cccc3c(N(C)C)c(C(=O)N[C@H]4CCOc5ccccc54)cnc23)c1 [Example 598] | > 8,5 |
| Cc1c(C(=O)N[C@H]2CCOc3ccccc32)cnc2c(-c3cc(F)ccc3Cl)cccc12 [Example 600] | > 8,5 |
| Cc1cc(C(C)(C)C)cc(-c2cccc3c(N(C)C)c(C(=O)N[C@H]4CCOc5ccccc54)cnc23)c1Cl [Example 601] | > 8,5 |
| O=C1CN(c2c(C(=O)N[C@H]3CCOc4ccccc43)cnc3c(-c4cc(F)ccc4Cl)cccc23)CN1 [Example 602] | 7,5-8,5 |
| CCc1c(C(=O)N[C@H]2CCOc3ccccc32)cnc2c(-c3cc(F)ccc3Cl)cccc12 [Example 603] | > 8,5 |
| O=C1CN(c2c(C(=O)N[C@H]3CCOc4ccccc43)cnc3c(-c4cc(Cl)ccc4F)cccc23)CN1 [Example 604] | > 8,5 |
| Cc1c(C(=O)N[C@H]2CCOc3ccccc32)cnc2c(-c3cc(Cl)ccc3F)cccc12 [Example 605] | > 8,5 |
| Cc1cc(C(C)(C)C)cc(-c2cccc3c(N4CCOCC4)c(C(=O)N[C@H]4CCOc5ccccc54)cnc23)c1Cl [Example 607] | > 8,5 |
| N#Cc1cc(Cl)c(Cl)c(-c2cccc3c(N4CCOCC4)c(C(=O)N[C@H]4CCOc5ccccc54)cnc23)c1 [Example 608] | > 8,5 |

| SMILES | pE50 (negative decadic logarithm of EC50) |
| --- | --- |
| O=C(N[C@H]1CCOc2ccccc21)c1cnc2c(-c3cc(Cl)ccc3F)c(OC(F)(F)F)ccc2c1N1CCOCC1 [Example 609] | > 8,5 |
| O=C(N[C@H]1CCOc2ccccc21)c1cnc2c(-c3cccc(Cl)c3Cl)c(OC(F)(F)F)ccc2c1N1CCOCC1 [Example 610] | > 8,5 |
| O=C(N[C@H]1CCOc2ccccc21)c1cnc2c(-c3cc(Cl)cc(Cl)c3)c(OC(F)(F)F)ccc2c1N1CCOCC1 [Example 611] | > 8,5 |
| CN(C)c1c(C(=O)N[C@H]2CCOc3ccccc32)cnc2c(-c3cc(Cl)ccc3F)c(OC(F)(F)F)ccc12 [Example 612] | > 8,5 |
| CN(C)c1c(C(=O)N[C@H]2CCOc3ccccc32)cnc2c(-c3cccc(Cl)c3Cl)c(OC(F)(F)F)ccc12 [Example 613] | > 8,5 |
| CN(C)c1c(C(=O)N[C@H]2CCOc3ccccc32)cnc2c(-c3cc(Cl)cc(Cl)c3)c(OC(F)(F)F)ccc12 [Example 614] | > 8,5 |
| O=C(N[C@H]1CCOc2ccccc21)c1cnc2c(-c3cccc(Cl)c3Cl)c(O)ccc2c1N1CCOCC1 [Example 615] | 7,5-8,5 |
| CN(C)c1c(C(=O)N[C@H]2CCOc3ccccc32)cnc2c(-c3cc(Cl)cc(Cl)c3)c(C#N)ccc12 [Example 617] | > 8,5 |
| CN(C)c1c(C(=O)N[C@H]2CCOc3ccccc32)cnc2c(-c3cc(Cl)ccc3F)cc(O)cc12 [Example 618] | > 8,5 |
| CN(C)c1c(C(=O)N[C@H]2CCOc3ccccc32)cnc2c(-c3cccc(Cl)c3Cl)cc(O)cc12 [Example 619] | 7,5-8,5 |
| O=C(N[C@H]1CCOc2ccccc21)c1cnc2c(-c3cc(Cl)cc(Cl)c3)cc(O)cc2c1N1CCOCC1 [Example 627] | > 8,5 |
| CCc1c(C(=O)N[C@H]2CCOc3ccccc32)cnc2c(-c3cc(Cl)ccc3F)cccc12 [Example 628] | > 8,5 |
| N#Cc1ccc2c(N3CCOCC3)c(C(=O)N[C@H]3CCOc4ccccc43)cnc2c1-c1cc(Cl)ccc1F [Example 642] | > 8,5 |
| CN(C)CCc1c(C(=O)N[C@H]2CCOc3ccccc32)cnc2c(-c3cc(Cl)cc(Cl)c3)cccc12 [Example 643] | 7,5-8,5 |
| Cc1ccc(Cl)c(-c2cccc3c(C)c(C(=O)N[C@H]4CCOc5ccccc54)cnc23)c1 [Example 645] | > 8,5 |
| CCc1c(C(=O)N[C@H]2CCOc3ccccc32)cnc2c(-c3cc(C)ccc3Cl)cccc12 [Example 646] | > 8,5 |
| N#Cc1ccc2c(N3CCOCC3)c(C(=O)N[C@H]3CCOc4ccccc43)cnc2c1-c1cc(Cl)cc(Cl)c1 [Example 652] | > 8,5 |
| CCc1c(C(=O)N[C@H]2CCOc3ccccc32)cnc2c(-c3cc(F)cc(F)c3F)cccc12 [Example 655] | > 8,5 |
| CN(C)c1c(C(=O)N[C@H]2CCOc3ccccc32)cnc2c(-c3ncc(Cl)[nH]3)cccc12 [Example 656] | 5,3-6,5 |
| N#Cc1ccc(-c2cccc(Cl)c2Cl)c2ncc(C(=O)N[C@H]3CCOc4ccccc43)c(N3CCOCC3)c12 [Example 657] | > 8,5 |
| CN(C)c1c(C(=O)N[C@H]2CCOc3ccccc32)cnc2c(-c3cc(Cl)ccc3F)ccc(C#N)c12 [Example 658] | > 8,5 |
| CN(C)c1c(C(=O)N[C@H]2CCOc3ccccc32)cnc2c(-c3cccc(Cl)c3Cl)ccc(C#N)c12 [Example 659] | > 8,5 |
| O=C(N[C@H]1CCOc2ccccc21)c1cnc2c(-c3cc(F)cc(F)c3F)cccc2c1I [Example 662] | > 8,5 |
